Source: patent publication US5760092A, “Allocolchinones and uses thereof” (Brandeis University, priority 1996, dated 1998)
Several values for one entry are separate records, joined by “and”; a condition that tells them apart may be missing. Equal entries are not always repeated. Where two headings read alike, the source gives them in different places.

Legend:
[1] = system: SR leukemia cells; conditions: log10 conc -8.0
[2] = system: NCI-H522 non-small cell lung cancer cells
[3] = system: HCT-116 colon cancer cells
[4] = system: MALME-3M melanoma cells
[5] = system: M14 melanoma cells
[6] = system: SK-MEL-2 melanoma cells
[7] = system: SK-MEL-28 melanoma cells
[8] = system: SK-MEL-5 melanoma cells
[9] = system: UACC-62 melanoma cells
[10] = system: OVCAR-4 ovarian cancer cells
[11] = system: 786-0 renal cancer cells
[12] = system: ACHN renal cancer cells
[13] = system: SN12C renal cancer cells; conditions: log10 conc -8.0; 0.01 µM
[14] = system: UO-31 renal cancer cells
[15] = system: DU-145 prostate cancer cells; conditions: log10 conc -8.0
[16] = system: RPMI-8226 leukemia cells; experiment: cells; conditions: Homo sapiens
[17] = system: NCI-H23 non-small cell lung cancer cells; experiment: cells; conditions: Homo sapiens
[18] = system: HCC-2998 colon cancer cells; experiment: cells; conditions: Homo sapiens
[19] = system: LOX IMVI melanoma cells; experiment: cells; conditions: Homo sapiens
[20] = system: OVCAR-4 ovarian cancer cells; experiment: cells; conditions: Homo sapiens
[21] = system: OVCAR-5 ovarian cancer cells; experiment: cells; conditions: Homo sapiens
[22] = system: 786-0 renal cancer cells; experiment: cells; conditions: Homo sapiens
[23] = system: SN12C renal cancer cells; experiment: cells; conditions: Homo sapiens
[24] = system: TK-10 renal cancer cells; experiment: cells; conditions: Homo sapiens
[25] = system: UO-31 renal cancer cells; experiment: cells; conditions: Homo sapiens
[26] = system: DU-145 prostate cancer cells; experiment: cells; conditions: Homo sapiens
[27] = system: BT-549 breast cancer cells; experiment: cells; conditions: Homo sapiens
[28] = read-out: Percent Growth, log10 conc -4.0
[29] = read-out: Percent Growth, log10 conc -5.0
[30] = read-out: Percent Growth, log10 conc -7.0
[31] = read-out: Percent Growth, log10 conc -9.0
[32] = read-out: Percent Growth, log10 conc -10.0

COc1cc2c(c(OC)c1OC)-c1ccc(C(C)=O)cc1C(NC(C)=O)CC2 (stereo not shown)
Percent Growth [1]: 26%
Percent Growth ([2]; log10 conc -6.0, 1 µM): 1%
Percent Growth ([2]; log10 conc -7.0, 0.1 µM): -3% and 0%
Percent Growth ([2]; log10 conc -8.0): 16%
Percent Growth ([3]; log10 conc -6.0, 1 µM): -3%
Percent Growth ([3]; log10 conc -7.0, 0.1 µM): 7%
Percent Growth ([4]; log10 conc -7.0, 0.1 µM): 37%
Percent Growth ([4]; log10 conc -8.0, 0.01 µM): 40%
Percent Growth ([5]; log10 conc -6.0, 1 µM): 22%
Percent Growth ([5]; log10 conc -7.0, 0.1 µM): 6% and 16%
Percent Growth ([5]; log10 conc -8.0, 0.01 µM): 15%
Percent Growth ([6]; log10 conc -6.0, 1 µM): 28%
Percent Growth ([6]; log10 conc -7.0, 0.1 µM): 20%
Percent Growth ([6]; log10 conc -8.0, 0.01 µM): 29%
Percent Growth ([7]; log10 conc -6.0, 1 µM): 60%
Percent Growth ([7]; log10 conc -7.0, 0.1 µM): 51%
Percent Growth ([7]; log10 conc -8.0, 0.01 µM): 55%
Percent Growth ([8]; log10 conc -7.0, 0.1 µM): 3%
Percent Growth ([8]; log10 conc -8.0, 0.01 µM): 24%
Percent Growth ([9]; log10 conc -6.0, 1 µM): 32%
Percent Growth ([9]; log10 conc -8.0, 0.01 µM): 32%
Percent Growth ([10]; log10 conc -6.0, 1 µM): 37%
Percent Growth ([10]; log10 conc -7.0, 0.1 µM): 42%
Percent Growth ([11]; log10 conc -6.0, 1 µM): 20%
Percent Growth ([11]; log10 conc -7.0, 0.1 µM): 21%
Percent Growth ([12]; log10 conc -6.0, 1 µM): 47%
Percent Growth ([12]; log10 conc -7.0, 0.1 µM): 47% and 24%
Percent Growth ([12]; log10 conc -8.0, 0.01 µM): 47%
Percent Growth [13]: 45%
Percent Growth ([14]; log10 conc -6.0, 1 µM): 25%
Percent Growth ([14]; log10 conc -7.0, 0.1 µM): 39%
Percent Growth ([14]; log10 conc -8.0): 89%
Percent Growth ([14]; log10 conc -8.0, 0.01 µM): 51%
Percent Growth [15]: 9%
activity at 100 µM ([16]; RPMI-8226, read-out: Percent Growth, log10 conc -4.0): 24%
activity at 10 µM ([16]; RPMI-8226, read-out: Percent Growth, log10 conc -5.0): 20%
activity at 0.0001 µM ([16]; RPMI-8226, read-out: Percent Growth, log10 conc -10.0): 89%
activity at 100 µM ([17]; NCI-H23, read-out: Percent Growth, log10 conc -4.0): 16%
activity at 10 µM ([17]; NCI-H23, read-out: Percent Growth, log10 conc -5.0): 22%
activity at 1 µM ([17]; NCI-H23, read-out: Percent Growth, log10 conc -6.0): 34%
activity at 0.1 µM ([17]; NCI-H23, read-out: Percent Growth, log10 conc -7.0): 26%
activity at 0.01 µM ([17]; NCI-H23, read-out: Percent Growth, log10 conc -8.0): 20%
activity at 0.001 µM ([17]; NCI-H23, read-out: Percent Growth, log10 conc -9.0): 23%
activity at 0.0001 µM ([17]; NCI-H23, read-out: Percent Growth, log10 conc -10.0): 101%
activity at 100 µM ([18]; HCC 2998, read-out: Percent Growth, log10 conc -4.0): 30%
activity at 10 µM ([18]; HCC 2998, read-out: Percent Growth, log10 conc -5.0): 30%
activity at 0.1 µM ([18]; HCC 2998, read-out: Percent Growth, log10 conc -7.0): 25%
activity at 0.01 µM ([18]; HCC 2998, read-out: Percent Growth, log10 conc -8.0): 97%
activity at 0.001 µM ([18]; HCC 2998, read-out: Percent Growth, log10 conc -9.0): 110%
activity at 0.0001 µM ([18]; HCC 2998, read-out: Percent Growth, log10 conc -10.0): 123%
activity at 100 µM [19, 28]: 25%
activity at 10 µM [19, 29]: 26%
activity at 0.1 µM [19, 30]: 16%
activity at 0.001 µM [19, 31]: 39%
activity at 0.0001 µM [19, 32]: 86%
activity at 100 µM ([20]; OVCAR-4, read-out: Percent Growth, log10 conc -4.0): 35%
activity at 10 µM ([20]; OVCAR-4, read-out: Percent Growth, log10 conc -5.0): 40%
activity at 1 µM ([20]; OVCAR-4, read-out: Percent Growth, log10 conc -6.0): 32%
activity at 0.1 µM ([20]; OVCAR-4, read-out: Percent Growth, log10 conc -7.0): 56%
activity at 0.01 µM ([20]; OVCAR-4, read-out: Percent Growth, log10 conc -8.0): 57%
activity at 0.001 µM ([20]; OVCAR-4, read-out: Percent Growth, log10 conc -9.0): 62%
activity at 0.0001 µM ([20]; OVCAR-4, read-out: Percent Growth, log10 conc -10.0): 92%
activity at 100 µM ([21]; OVCAR-5, read-out: Percent Growth, log10 conc -4.0): 21%
activity at 10 µM ([21]; OVCAR-5, read-out: Percent Growth, log10 conc -5.0): 23%
activity at 1 µM ([21]; OVCAR-5, read-out: Percent Growth, log10 conc -6.0): 41%
activity at 0.01 µM ([21]; OVCAR-5, read-out: Percent Growth, log10 conc -8.0): 39%
activity at 0.001 µM ([21]; OVCAR-5, read-out: Percent Growth, log10 conc -9.0): 41%
activity at 0.0001 µM ([21]; OVCAR-5, read-out: Percent Growth, log10 conc -10.0): 103%
activity at 100 µM ([22]; 786-0, read-out: Percent Growth, log10 conc -4.0): 10%
activity at 10 µM ([22]; 786-0, read-out: Percent Growth, log10 conc -5.0): 15%
activity at 1 µM ([22]; 786-0, read-out: Percent Growth, log10 conc -6.0): 39%
activity at 0.1 µM ([22]; 786-0, read-out: Percent Growth, log10 conc -7.0): 36%
activity at 0.001 µM ([22]; 786-0, read-out: Percent Growth, log10 conc -9.0): 51%
activity at 0.0001 µM ([22]; 786-0, read-out: Percent Growth, log10 conc -10.0): 96%
activity at 100 µM [23, 28]: 17%
activity at 10 µM [23, 29]: 17%
activity at 1 µM ([23]; read-out: Percent Growth, log10 conc -6.0): 31%
activity at 0.1 µM [23, 30]: 31%
activity at 0.01 µM ([23]; read-out: Percent Growth, log10 conc -8.0): 33%
activity at 0.001 µM [23, 31]: 55%
activity at 0.0001 µM [23, 32]: 100%
activity at 100 µM ([24]; TK-10, read-out: Percent Growth, log10 conc -4.0): 82%
activity at 10 µM ([24]; TK-10, read-out: Percent Growth, log10 conc -5.0): 91%
activity at 0.1 µM ([24]; TK-10, read-out: Percent Growth, log10 conc -7.0): 65%
activity at 0.001 µM ([24]; TK-10, read-out: Percent Growth, log10 conc -9.0): 65%
activity at 0.0001 µM ([24]; TK-10, read-out: Percent Growth, log10 conc -10.0): 98%
activity at 100 µM ([25]; UO-31, read-out: Percent Growth, log10 conc -4.0): 29%
activity at 10 µM ([25]; UO-31, read-out: Percent Growth, log10 conc -5.0): 26%
activity at 1 µM ([25]; UO-31, read-out: Percent Growth, log10 conc -6.0): 42%
activity at 0.1 µM ([25]; UO-31, read-out: Percent Growth, log10 conc -7.0): 52%
activity at 0.001 µM ([25]; UO-31, read-out: Percent Growth, log10 conc -9.0): 90%
activity at 0.0001 µM ([25]; UO-31, read-out: Percent Growth, log10 conc -10.0): 99%
activity at 100 µM ([26]; DU-145, read-out: Percent Growth, log10 conc -4.0): 22%
activity at 10 µM ([26]; DU-145, read-out: Percent Growth, log10 conc -5.0): 22%
activity at 0.001 µM ([26]; DU-145, read-out: Percent Growth, log10 conc -9.0): 55%
activity at 0.0001 µM ([26]; DU-145, read-out: Percent Growth, log10 conc -10.0): 94%
activity at 100 µM ([27]; BT-549, read-out: Percent Growth, log10 conc -4.0): 56%
activity at 10 µM ([27]; BT-549, read-out: Percent Growth, log10 conc -5.0): 55%
activity at 1 µM ([27]; BT-549, read-out: Percent Growth, log10 conc -6.0): 46%
activity at 0.1 µM ([27]; BT-549, read-out: Percent Growth, log10 conc -7.0): 46%
activity at 0.01 µM ([27]; BT-549, read-out: Percent Growth, log10 conc -8.0): 54%
activity at 0.001 µM ([27]; BT-549, read-out: Percent Growth, log10 conc -9.0): 62%
activity at 0.0001 µM ([27]; BT-549, read-out: Percent Growth, log10 conc -10.0): 93%
